Source: patent EP4786487A1, “PEPTIDE” (Peptidream Inc, priority 2023, dated 2025)
For some of these results: Part of at least one peptide drawing is inferred or uncertain, most often the ends. For some of these results: For at least one compound, name, drawing or mass did not settle the structure. Starred links: 1 amine or outer side, 2 acyl side, 3 side chain; linkers in the order of their positions; H or OH if unused. Positions of bridges follow the written chain, without caps; N, C: chain ends. Non-standard residues stand in square brackets, D forms with d. Residues, ends and D or L forms follow the SMILES beside them. Trp(6-OH,1-(4-HO2C-Ph)) = N[C@@H](Cc1cn(-c2ccc(C(=O)O)cc2)c2cc(O)ccc12)C(=O)O; Phe(3-OCH2COOH) = N[C@@H](Cc1cccc(OCC(=O)O)c1)C(=O)O; NMePhe(4-CH2NH2) = CN[C@@H](Cc1ccc(CN)cc1)C(=O)O; Phe(4-COOH) = N[C@@H](Cc1ccc(C(=O)O)cc1)C(=O)O; Bip = N[C@@H](Cc1ccc(-c2ccccc2)cc1)C(=O)O; Gly(N(CH2)3COOH) = O=C(O)CCCNCC(=O)O; NMeY = CN[C@@H](Cc1ccc(O)cc1)C(=O)O; X1 = CCCCCCC[C@H](N[*:1])C(=O)[*:2]; NMeAad = CN[C@@H](CCCC(=O)O)C(=O)O; NMeF = CN[C@@H](Cc1ccccc1)C(=O)O; NMeDab = CN[C@@H](CCN)C(=O)O; NMeA = CN[C@@H](C)C(=O)O; dNMeA = CN[C@H](C)C(=O)O

Tests used:
Format in all cases: cell-based
Myostatin [1] = experiment: Reporter gene assay for myostatin signaling in HepG2 cell line, Evaluation Procedure (1), myostatin inhibition; settings: GDF-11 IC50 versus Myostatin IC50
Procedure: (§1) In this Example, the in vitro myostatin inhibitory effects of the peptides synthesized in Examples 1 and 2 were evaluated using a reporter gene assay for myostatin signaling in HepG2 cell line.
(§2) HepG2 cell line (HB-8065, ATCC) cultured in EMEM (055-08975, WAKO Industries) containing 10% FBS (10270106, Gibco) and 50 µg/mL gentamicin (11980-14, Nacalai Tesque) was seeded in 96-well plates (167008, Thermo) at 2.0 × 10^4 cells/well and incubated in a CO2 incubator (37°C, 5% CO2) for 24 hours. The pGL3(CAGA)12-luc plasmid, namely a pGL3 vector (E1751, Promega) having a luciferase gene inserted downstream of a promoter sequence with 12 CAGA repeats attached, was added to the wells along with a transfection reagent (X-treamGENE9 DNA Transfection Reagent, 6365809001, Roche) at a concentration of 0.04 µg/well. The cell line was cultured in a CO2 incubator (37°C, 5% CO2) for 24 hours for transfection. The medium was discarded and replaced with EMEM containing 50 µL/well of 0.1% bovine serum albumin (A7030, Sigma) and 50 µg/mL gentamicin, and incubated in a CO2 incubator (37°C, 5% CO2) for 2 hours.
(§3) Myostatin (788-G8/C, R&D systems) or GDF-11 (1958-GD-G8/CF, R&D systems) was added so that the final concentrations were those listed in Table 5.
(§4) A 4-fold dilution series of various peptides synthesized in Examples 1 and 2 was added to achieve 0.006-100 nmol/L (myostatin inhibition) and 0.12-2000 nmol/L (GDF-11 inhibition). At this time, blank wells, in which neither myostatin, GDF-11, nor each peptide was added, were also prepared and incubated in a CO2 incubator (37°C, 5% CO2) for 20 to 24 hours.
(§5) The medium containing the cells was removed, and a mixture containing PBS (14190144, Thermo) and a chromogenic substrate One-Glo Luciferase Assay System (E6120, Promega) at a ratio of 1:1 was added to each well at 100 µL/well. This was stirred with a plate shaker for 5 min and transferred to a 384-well plate (3570, Corning) at a volume of 20 µL/well.
(§6) The plate was centrifuged at 1,000 × g for 1 min and the luminescence signal (700 nm luminescence) was measured using a plate reader (Envision 2104, PerkinElmer). Based on the measured values, IC50 values of the peptides were calculated using software (Prism 9, GraphPad). […]
(§7) In this Example, the in vitro myostatin inhibitory effects of the peptides synthesized in Examples 10 and 11 were evaluated according to the Evaluation Procedure (1) in Example 3.

GDF-11 [2] = target: T1, GDF-11 (Homo sapiens, UniProt O95390); experiment: Reporter gene assay for myostatin signaling in HepG2 cell line, Evaluation Procedure (1), GDF-11 inhibition; settings: Method D: GDF-11 1.5 ng/mL; read-out: IC50 (Luciferase) GDF-11 HepG2
T1 construct: purchased R&D systems 1958-GD-G8/CF
T1 sequence (O95390 299-407): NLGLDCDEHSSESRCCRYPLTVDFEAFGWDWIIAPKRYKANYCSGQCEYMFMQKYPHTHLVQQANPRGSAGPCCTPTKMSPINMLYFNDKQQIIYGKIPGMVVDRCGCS
Procedure: as §1, §2, §3, §4, §5, §6, §7

Myostatin [3] = target: T2, Myostatin (Homo sapiens, UniProt O14793); experiment: Reporter gene assay for myostatin signaling in HepG2 cell line, Evaluation Procedure (1), myostatin inhibition; settings: Method D: Myostatin 1.5 ng/mL; read-out: IC50 (Luciferase) Myostatin HepG2
T2 construct: active myostatin (also called mature myostatin) is a homodimer consisting of two C-terminal growth factor domains; purchased R&D systems 788-G8/CF
T2 sequence (O14793 267-375): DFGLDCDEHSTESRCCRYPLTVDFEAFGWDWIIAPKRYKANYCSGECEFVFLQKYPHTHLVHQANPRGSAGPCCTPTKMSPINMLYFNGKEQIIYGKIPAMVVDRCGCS
Procedure: as §1, §2, §3, §4, §5, §6, §7

GDF-11 [4] = experiment: Reporter gene assay for myostatin signaling in HepG2 cell line, Evaluation Procedure (1), GDF-11 inhibition; settings: GDF-11 IC50 relative to myostatin IC50, HepG2
Procedure: as §1, §2, §3, §4, §5, §6, §7

CC[C@H](C)[C@@H]1NC(=O)[C@H](Cc2ccc(O)cc2)N(C)C(=O)[C@H](Cc2ccc(O)cc2)NC(=O)[C@H](Cc2ccc(-c3ccccc3)cc2)NC(=O)[C@H](C)NC(=O)CN(CCCC(=O)O)C(=O)CSC[C@H](C(=O)O)NC(=O)[C@H](Cc2ccccc2)N(C)C(=O)[C@H](C)N(C)C(=O)[C@H](CC(C)C)NC(=O)[C@H](Cc2ccccc2)N(C)C(=O)[C@H](CCCNC(=N)N)NC(=O)[C@H](Cc2ccc(C(=O)O)cc2)NC(=O)[C@H](Cc2cccc(OCC(=O)O)c2)NC(=O)[C@@H](C)N(C)C1=O [Myostatin_99_v118] ({CH2CO}-[Gly(N(CH2)3COOH)]A[Bip]Y[NMeY]I[dNMeA][Phe(3-OCH2COOH)][Phe(4-COOH)]R[NMeF]L[NMeA][NMeF][dC]-OH; thioether N-15)
Selectivity (Myostatin [1]; Method A): 175

CCCCCCC[C@@H]1NC(=O)[C@@H]2Cc3ccc(cc3)CNC(=O)CC[C@H](NC(=O)CSC[C@H](C(=O)O)NC(=O)[C@H](Cc3ccccc3)N(C)C(=O)[C@H](C)N(C)C1=O)C(=O)N[C@@H](C)C(=O)N[C@@H](Cc1c[nH]c3ccccc13)C(=O)N[C@@H](Cc1ccc(O)cc1)C(=O)N(C)[C@@H](Cc1ccccc1)C(=O)N[C@@H]([C@@H](C)CC)C(=O)N(C)[C@@H](C)C(=O)N[C@@H](Cc1cccc(OCC(=O)O)c1)C(=O)N[C@@H](Cc1ccc(C(=O)O)cc1)C(=O)N[C@@H](CCCNC(=N)N)C(=O)N2C [Myostatin_99_v358] ({CH2CO}-EAWY[NMeF]I[NMeA][Phe(3-OCH2COOH)][Phe(4-COOH)]R[NMePhe(4-CH2NH2)][X1][NMeA][NMeF][dC]-OH; lactam 1-11; thioether N-15)
Selectivity (Myostatin [1]; Method D): 310.4

CCCCCCC[C@@H]1NC(=O)[C@H](Cc2ccccc2)N(C)C(=O)[C@H](CCCNC(=N)N)NC(=O)[C@H](Cc2ccc(C(=O)O)cc2)NC(=O)[C@H](Cc2cccc(OCC(=O)O)c2)NC(=O)[C@H](C)N(C)C(=O)[C@H]([C@@H](C)CC)NC(=O)[C@H](Cc2ccccc2)N(C)C(=O)[C@H](Cc2ccc(O)cc2)NC(=O)[C@H](Cc2c[nH]c3ccccc23)NC(=O)[C@H](C)NC(=O)[C@@H]2CC(=O)NCC[C@@H](C(=O)N(C)[C@@H](Cc3ccccc3)C(=O)N[C@@H](C(=O)O)CSCC(=O)N2)N(C)C1=O [Myostatin_99_v367] ({CH2CO}-DAWY[NMeF]I[NMeA][Phe(3-OCH2COOH)][Phe(4-COOH)]R[NMeF][X1][NMeDab][NMeF][dC]-OH; lactam 1-13; thioether N-15)
Selectivity (Myostatin [1]; Method D): 757.1

CCCCCCC[C@@H]1NC(=O)[C@@H]2Cc3ccc(cc3)CNC(=O)C[C@H](NC(=O)CSC[C@H](C(=O)O)NC(=O)[C@H](Cc3ccccc3)N(C)C(=O)[C@H](C)N(C)C1=O)C(=O)N[C@@H](C)C(=O)N[C@@H](Cc1c[nH]c3ccccc13)C(=O)N[C@@H](Cc1ccc(O)cc1)C(=O)N(C)[C@@H](Cc1ccccc1)C(=O)N[C@@H]([C@@H](C)CC)C(=O)N(C)[C@@H](C)C(=O)N[C@@H](Cc1cccc(OCC(=O)O)c1)C(=O)N[C@@H](Cc1ccc(C(=O)O)cc1)C(=O)N[C@@H](CCCNC(=N)N)C(=O)N2C [Myostatin_99_v386] ({CH2CO}-DAWY[NMeF]I[NMeA][Phe(3-OCH2COOH)][Phe(4-COOH)]R[NMePhe(4-CH2NH2)][X1][NMeA][NMeF][dC]-OH; lactam 1-11 (inferred); thioether N-15 (inferred); N-terminus and C-terminus assumed)
IC50 (GDF-11 [2]): 55 nM
IC50 (Myostatin [3]): 0.19 nM

CCCCCCC[C@@H]1NC(=O)[C@@H]2Cc3ccc(cc3)CNC(=O)CC[C@H](NC(=O)CSC[C@H](C(=O)O)NC(=O)[C@H](Cc3ccccc3)N(C)C(=O)[C@H](C)N(C)C1=O)C(=O)N[C@@H](C)C(=O)N[C@@H](Cc1cn(-c3ccc(C(=O)O)cc3)c3cc(O)ccc13)C(=O)N[C@@H](Cc1ccc(O)cc1)C(=O)N(C)[C@@H](Cc1ccccc1)C(=O)N[C@@H]([C@@H](C)CC)C(=O)N1CCC[C@@H]1C(=O)N[C@@H](Cc1cccc(OCC(=O)O)c1)C(=O)N[C@@H](Cc1ccc(C(=O)O)cc1)C(=O)N[C@@H](CCCNC(=N)N)C(=O)N2C [Myostatin_99_v424] ({CH2CO}-EA[Trp(6-OH,1-(4-HO2C-Ph))]Y[NMeF]I[dP][Phe(3-OCH2COOH)][Phe(4-COOH)]R[NMePhe(4-CH2NH2)][X1][NMeA][NMeF][dC]-OH; lactam 1-11; thioether N-15)
Selectivity (Myostatin [1]; Method D): 422.5

CCCCCCC[C@@H]1NC(=O)[C@@H]2Cc3ccc(cc3)CNC(=O)CCC[C@@H](C(=O)N[C@@H](C)C(=O)N[C@@H](Cc3cn(-c4ccc(C(=O)O)cc4)c4cc(O)ccc34)C(=O)N[C@@H](Cc3ccc(O)cc3)C(=O)N(C)[C@@H](Cc3ccccc3)C(=O)N[C@@H]([C@@H](C)CC)C(=O)N3CCC[C@@H]3C(=O)N[C@@H](Cc3cccc(OCC(=O)O)c3)C(=O)N[C@@H](Cc3ccc(C(=O)O)cc3)C(=O)N[C@@H](CCCNC(=N)N)C(=O)N2C)N(C)C(=O)[C@H](C)N(C)C(=O)[C@@H](C)NC(=O)[C@H](Cc2ccccc2)N(C)C(=O)[C@H](C)N(C)C1=O [Myostatin_99_v490] (cyclo(A[Trp(6-OH,1-(4-HO2C-Ph))]Y[NMeF]I[dP][Phe(3-OCH2COOH)][Phe(4-COOH)]R[NMePhe(4-CH2NH2)][X1][NMeA][NMeF][dA][NMeA][NMeAad]); lactam 10-16)
Selectivity (GDF-11 [4]): 160.4
